This test concerns NCI-H322M lung. Kind of test: NCI tumour cell line growth inhibition, 48 h.

Values joined by “and” are separate entries in the source; they are usually repeats but may differ in a detail not shown here. Identical values can stand only once.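 Step 1: Grow cells in 96-well plates. Step 2: Expose to compound for 48 hours at 5 concentrations. Step 3: Interpolate endpoints linearly; if unreached, use highest concentration. At the GI50, growth is halved. Definition used: TGI = concentration required for complete inhibition of growth.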

Turning to `O=CNc1ccccc1OCCOc1ccccc1NC=O`, the TGI is > 100 µM.

On to `Cc1[nH]c(-c2ccccc2)c2nc(N(C)C)oc(=O)c12`, for which the TGI is > 100 µM.

In the case of `COc1ccc(Br)c(C(=O)N2CCc3ccccc32)c1N`, the TGI is > 100 µM.

Take `COc1ccc(C2=Nn3c(nnc3-n3nc(C)cc3C)SC2)cc1`: the GI50 is 0.59 µM and the TGI was > 100 µM.

Turning to `COc1ccc2c(c1OC)O/C(=C\c1ncc([N+](=O)[O-])n1C)C2=O`, the GI50 was > 36.2 µM and the TGI was > 100 µM.

Regarding `CCCCCCCCCCCCCCCC[n+]1ccccc1`, the GI50 is 2.03 µM and the TGI was 4.55 µM.

Turning to `CCOc1nc2c(N3CCCC3)nc(N3CCNCC3)nc2nc1NCc1ccccc1`, the TGI was 2.99 µM.

Take `O=C1NC(N/N=C\c2ccccc2)=N/C1=C/c1ccccc1`: the TGI is > 100 µM.

As for `CCOC(=O)CCC(NC(=O)c1ccc(NC(OC)c2nc3cc(C(F)(F)F)ccc3nc2-c2ccccc2)cc1)C(=O)OCC` (stereo unspecified), the TGI is 28.7 µM.

With `CC1=CCC(C(C)(C)NC(=O)c2ccccc2)C/C1=N/O` (stereo unspecified), the TGI was > 100 µM.

As for `CN(C)c1ccc(C(O)C2=CC(=O)c3ccccc3C2=O)cc1` (stereo unspecified), the GI50 was 23.8 µM and the TGI came to 91.2 µM.

With `NC(=O)/C(=C/n1cnc(-c2cc(C(F)(F)F)cc(C(F)(F)F)c2)n1)c1cncnc1`, the GI50 was 0.46 µM and the TGI stood at 12.4 µM.

Regarding `Nc1ncc2ncn(C3CCC(CO)O3)c2n1` (stereo unspecified), the TGI is > 100 µM.

On to `O=[N+]([O-])c1cccc(Nc2nc(Cl)nc(Cl)n2)c1`, for which the TGI was > 100 µM.

For `Cn1c(=O)c2c(nc(N/N=C/c3ccccc3C(=O)O)n2C)n(C)c1=O`, the TGI was > 100 µM.

For the molecule `Cc1ccc(-c2cn3c(nc4ccccc43)c(/C=C/c3ccco3)n2)cc1`, the TGI was > 100 µM.

Regarding `COc1ccc(-c2nc(-c3cnccn3)n(C3OC(CO)C(O)C3O)n2)cc1` (stereo unspecified), the TGI is > 10 µM.

In the case of `Cc1cc(NS(=O)(=O)c2ccc(N=[N+]([O-])c3ccc(S(=O)(=O)Nc4cc(C)on4)cc3)cc2)no1`, the TGI was > 100 µM.

As for `O=c1[nH][nH]c(=O)c2c1ccc1oc3ccccc3c12`, the TGI is > 100 µM.

In the case of `COC(=O)c1c(O)ccc2c1c1cc3ccccc3c(O)c1n2CCc1ccc(OC)c(OC)c1`, the TGI is > 100 µM.

For `NC(=O)[N+](=CC(=S)Nc1ccccc1Cl)C(N)=O`, the TGI is > 100 µM.

As to `COc1cc2c(c(OC)c1OC)C(=O)NCCC2`, the TGI was > 100 µM.

As for `COc1cc2c3cc1Oc1c(OC)c(OC)cc4c1C(Cc1ccc(O)c(c1)Oc1ccc(cc1)CC3N(C)CC2)N(C)CC4` (stereo unspecified), the GI50 is 28.5 µM and the TGI was > 100 µM.

As for `CC1(C)N=C(N)N=C(N)N1c1cccc(CCc2ccccc2)c1`, the GI50 is 0.673 µM and the TGI is > 100 µM.

Turning to `CC(O)[C@H](NC(=O)N[C@@H](CC(N)=O)c1nc(N2CCNCC2)no1)C(=O)O` (stereo partly specified), the GI50 was > 100 µM and the TGI was > 100 µM.

As for `COc1ccc(-c2c(N)noc2-c2cc(OC)c3c(c2)OCCO3)cc1`, the GI50 was 19.3 µM and the TGI is > 100 µM.

In the case of `O=c1cccc(Cl)[nH]1`, the TGI is > 100 µM.

As to `O=[N+]([O-])/C=C/c1ccc(Cl)cc1[N+](=O)[O-]`, the GI50 is 13.9 µM and the TGI is 28.3 µM.

Regarding `Nn1c(-c2ccc(Cl)cc2)nc2c(-c3ccc(Cl)cc3)nc3ccc(Cl)cc3c2c1=O`, the GI50 was 73.2 µM and the TGI was > 100 µM.

Take `CN(C)CCN1CCc2c([nH]c3ccccc23)C1c1cccnc1` (stereo unspecified): the TGI was > 100 µM.

As for `CCOC(=O)c1c[nH]c(C(=O)C=[N+]=[N-])c1C1CCN(CC)C1=S` (stereo unspecified), the TGI was > 100 µM.

With `CCCCC1(C(NC(=O)c2ccccc2Cl)c2ccncc2)C(=O)N(c2ccccc2)N(c2ccccc2)C1=O` (stereo unspecified), the TGI was > 100 µM.

Turning to `COc1ccc(-c2cc(/C=C/C(=O)c3ccc(N)cc3)[nH]n2)cc1`, the GI50 was 1.84 µM and the TGI was 9.27 µM.

For the molecule `C=C1CC[C@H]2C(C)=CC[C@H]3C(=C)C(=O)O[C@@H]3[C@@H]12`, the TGI is > 100 µM.

With `CCCCCC[C@H]1C(=O)O[C@H](C)[C@H](NC(=O)c2cccc(NC=O)c2OC)C(=O)O[C@@H](C)[C@@H]1OC(=O)CCC` (tested in a mixture with another compound), the GI50 was 19.4 µM and the TGI was found to be 69.1 µM.

Turning to `COc1cc2c3c(n(CCCNCCCNCCCN)c(=O)c2cc1OC)-c1cc2c(cc1C3=O)OCO2`, the GI50 is 83.4 µM and the TGI is > 100 µM.

As for `CC(C)OP(=O)(OC(C)C)C(C)(C)O`, the TGI was > 100 µM.

As for `CCc1ccc2c(c1)N(CCO)C1=C(C(=O)OC1)C2c1cc(OC)c(OC)c(OC)c1` (stereo unspecified), the GI50 is 0.367 µM and the TGI was > 50 µM.

As to `CCc1n[nH]c(=O)n1/N=C(\C)c1ccccc1`, the TGI was > 100 µM.

`COc1cc(OC)c2c(=O)c3cccc([N+](=O)[O-])c3n(C)c2c1`: the TGI is > 100 µM.

With `Cc1cc(NN=C(c2ccc(O)cc2)c2ccc(O)cc2)c([N+](=O)[O-])cc1[N+](=O)[O-]`, the GI50 is 4.71 µM and the TGI came to 25.7 µM.

Consider `O=C(NCCN1CCCCC1)c1cccc(I)c1`, for which the TGI was > 100 µM.

For `COc1ccc(C2NC(=S)NC3=C2CCOc2c3ccc3ccccc23)cc1` (stereo unspecified), the GI50 was 60 µM and the TGI was > 100 µM.

As to `O=C(Cc1nc2ccccc2[nH]c1=O)c1c[nH]c2ccccc12`, the TGI was > 100 µM.

Consider `CCCNCCCCC(NC(C)=O)C(=O)NCc1ccccc1` (stereo unspecified), for which the TGI was > 100 µM.

In turn, `N#C/C(=C(/O)CCl)c1nc2ccccc2o1` returned a TGI of 62.2 µM.

As to `CCCCOC/N=C(/N)NC#N`, the TGI is > 100 µM.

As for `CCOC1Oc2ccc(C)cc2C(=O)/C1=C\Nc1ccc(S(N)(=O)=O)cc1` (stereo unspecified), the GI50 is 14.2 µM and the TGI was > 50 µM.

As for `COC(=O)c1c(O)ccc2c1c1c(n2Cc2cc(OC)cc(OC)c2)C(=O)c2ccccc2C1=O`, the TGI stood at 65.1 µM.

For `O=C1Cc2cn[nH]c2-c2ccccc2N1`, the TGI was > 100 µM.

Take `COc1ccc(C2C3CCc4ccccc4C3=NN2S(=O)(=O)c2cccc(C(=O)O)c2OC)cc1` (stereo unspecified): the TGI was > 100 µM.

`CC(C)(C)O/N=C/c1cc(NC(=S)c2ccsc2)ccc1Cl` yielded a TGI of 53.7 µM.

On to `O=C1OC([C@H](O)c2cccnc2)c2ccccc21` (stereo partly specified), for which the TGI is > 10 µM.

As to `Cc1ccc2nc(NS(=O)(=O)c3cc(C)c(Cl)cc3S)[nH]c2c1`, the TGI was > 100 µM.

Consider `O=[N+]([O-])c1ccc(-c2nn3c(C45CC6CC(CC(C6)C4)C5)nnc3s2)c(Cl)c1`, for which the TGI is > 100 µM.

Consider `COC(=O)/C=C/[C@@H]1[C@H](C)N1S(=O)(=O)c1ccc(C)cc1` (stereo partly specified), for which the TGI is > 100 µM.

Take `COc1ccc(/C=C/C(=O)c2cc3c(N)c(C(=O)Nc4ccc(OC)cc4)sc3nc2C)cc1`: the GI50 was 0.23 µM and the TGI is > 50 µM.

On to `COc1ccc(COCC[C@H](C)OC2OC(CO)C(O)C(O)C2O)cc1` (stereo partly specified), for which the TGI is > 100 µM.

With `C#C[C@]1(O)CC[C@H]2[C@@H]3CCc4cc(O)ccc4[C@H]3CC[C@@]21C`, the TGI was > 100 µM.

`CC1(C)C2CCC13C(=O)C1OC3(C2)C2C(=O)c3c(ccc4c3ccc3ccccc34)C(=O)C12` (stereo unspecified): the GI50 was > 84 µM and the TGI is > 100 µM.

With `CN1CC[C@H](c2c(O)cc(O)c3c(=O)cc(-c4ccccc4Cl)oc23)[C@H](O)C1`, the GI50 is 0.0318 µM and the TGI was > 10 µM.

In the case of `CSC1=Nc2c(c(C)c(-c3ccccc3)n2COC(CO)CO)C2=NC(=O)CC(C)N12` (stereo unspecified), the GI50 was > 100 µM and the TGI was > 100 µM.

With `COc1ccc(C(O)c2cc3c(N)c(C(=O)Nc4cccc(Br)c4C)sc3nc2C)cc1` (stereo unspecified), the GI50 was 0.689 µM and the TGI was > 33.3 µM.

In turn, `C=C1C(O)C2(O)OCC34C(CC5C(C)=CC(=O)C(O)C5(C)C23)OC(=O)C(OC(=O)C/C=C/CCCCCCCC)C14` (stereo unspecified) registered a TGI of 0.238 µM.

On to `CC(=O)/C(=C\I)c1ccccc1`, for which the TGI worked out at 25.3 µM.

In the case of `CC[C@H]1OC(=O)[C@H](C)[C@@H](O[C@H]2C[C@@](C)(OC)[C@@H](O)[C@H](C)O2)[C@H](C)[C@@H](O[C@@H]2O[C@H](C)C[C@H](N(C)C)[C@H]2O)[C@](C)(OC)C/C(C)=C2/O[C@@]1(C)C=C2C`, the GI50 was 1.68 µM and the TGI worked out at 3.05 µM.

Consider `Cn1cnnc1[S-].[Au+].c1ccc([PH+](c2ccccc2)c2ccccc2)cc1`, for which the GI50 was 1.69 µM and the TGI was 3.23 µM.

As for `Cc1ccc(S(=O)(=O)N2CCSCCSCCSCCN(S(=O)(=O)c3ccc(C)cc3)CC2)cc1`, the TGI is > 100 µM.

As to `COc1cc(N(C)C)c(OC)cc1C=C1C=CC=C1`, the TGI is > 100 µM.

Regarding `COc1cc2cc(Oc3cccc(NC(=O)Nc4cc(C(F)(F)F)cc(C(F)(F)F)c4)c3)c(C)nc2cc1OC`, the GI50 is 1.16 µM and the TGI amounted to 2.57 µM.

As to `COc1cc2ncnc(Oc3cccc(NC(=O)Nc4cc(C(C)(C)C(F)(F)F)on4)c3)c2cc1OC`, the GI50 was 1.05 µM and 1.79 µM; the TGI was 17.3 µM and > 10 µM.

As for `N#Cc1cc(S(=O)(=O)Nc2nc3cc(Cl)ccc3o2)c(SCc2ccccc2)cc1Cl`, the GI50 is 10.9 µM and the TGI stood at 22.9 µM.

On to `COc1cc(-c2nn(-c3cccc(NC(=O)CCNc4ccc(N5CCOCC5)cc4)c3)cc2-c2ccncc2)ccc1Cl`, for which the GI50 is 3.25 µM and the TGI is > 100 µM.

Take `CC1OC(OC2C(O)C(O)C(O)C(O)C2O)C(N)CC1N=C(N)C(=O)O` (stereo unspecified): the TGI is > 100 µM.

The molecule `COc1cc(C2S/C(=C/c3ccccc3)C(=O)N2c2cccc(NC(C)=O)c2)cc(OC)c1OC` (stereo unspecified) returned a TGI of 84.8 µM.

`CC1(C)OC[C@@H]([C@@]2(COC(c3ccccc3)(c3ccccc3)c3ccccc3)CC=CC(=O)O2)O1`: the TGI is > 100 µM.

Take `C#C[C@]1(O)CC[C@H]2[C@@H]3CC=C4c5nc(N)sc5CC[C@]4(C)[C@H]3CC[C@@]21C`: the GI50 is 10 µM and the TGI was determined as 62.6 µM.

For `N#CCc1cccc(CC#N)c1Br`, the TGI was > 100 µM.

Consider `Cc1cn(C2CC(N=[N+]=[N-])C(COP(=O)(O)OCC3OC(n4cc(F)c(=O)[nH]c4=O)CC3O)O2)c(=O)[nH]c1=O` (stereo unspecified), for which the TGI was > 100 µM.

`COc1cc([C@@H]2c3cc4c(cc3[C@@H](Nc3ccc(Cl)cc3C(=O)c3ccccc3)[C@H]3COC(=O)[C@H]23)OCO4)cc(OC)c1OC`: the TGI was > 100 µM.

Take `COc1ccc(C2Cc3cc(OC)c(OC)c(OC)c3C2)cc1` (stereo unspecified): the TGI was > 100 µM.

Values taken from PubChem BioAssay (NCI).
